# Reference: the BET-seq Pho4 binding data (Le et al. 2018)
# This is one part of the list. These are noisy estimates, calculated here from bound and input reads.
# Target: T1, Pho4 (S. cerevisiae) (UniProt P07270)
# T1 sequence: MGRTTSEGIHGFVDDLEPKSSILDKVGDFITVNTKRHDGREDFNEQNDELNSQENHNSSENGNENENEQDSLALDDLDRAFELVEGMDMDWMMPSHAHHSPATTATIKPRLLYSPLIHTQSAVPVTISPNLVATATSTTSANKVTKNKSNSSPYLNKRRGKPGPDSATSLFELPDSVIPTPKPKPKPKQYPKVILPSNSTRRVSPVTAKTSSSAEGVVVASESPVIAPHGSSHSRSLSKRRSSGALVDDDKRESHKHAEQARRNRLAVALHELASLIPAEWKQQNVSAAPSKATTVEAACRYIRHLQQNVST
# Assay: relative binding free energy (BET-seq); higher = weaker binding
# Details: reference: library average
row,Sequence,relative binding free energy [kcal/mol]
1,GTCAGCACGTGTCGGT,0.17
2,TTCATCACGTGTGAAG,0.19
3,TAAGGCACGTGCTTGT,-0.15
4,TCTAGCACGTGTTTTG,0.01
5,TGTATCACGTGTGTCT,0.07
6,GGTCACACGTGGCGGG,0.08
7,TTACGCACGTGTCGTG,-0.11
8,AGGGGCACGTGAGTAC,0.04
9,GGTAGCACGTGAGAAA,0.49
10,ATATTCACGTGATGTG,0.27
11,TTGGTCACGTGTGATC,0.03
12,GTAGACACGTGTGTAG,0
13,GTGATCACGTGTGATT,0.21
14,TGATGCACGTGTATTT,-0.04
15,TAGGTCACGTGACTTT,0.19
16,TGGATCACGTGCTGGC,0.19
17,ATTTTCACGTGGTTGG,0.31
18,CGTATCACGTGTGGTA,0.18
19,TATGACACGTGATGTG,0.13
20,GTGGTCACGTGTCGTT,0.09
21,CTTGCCACGTGAGTTT,0.35
22,TGGAGCACGTGTCGTT,-0.12
23,ATAGTCACGTGTCTTG,-0.01
24,CGATTCACGTGTGTTT,0.31
25,CAGTCCACGTGGTTGG,-0.01
26,GGCTTCACGTGTGATT,0.37

row,Sequence,relative binding free energy [kcal/mol]
1,GGGCCCACGTGTAGGT,0.06
2,TGAGACACGTGGATGG,0.03
3,TATTGCACGTGGGGAG,-0.05
4,GTTTTCACGTGATTTT,0.37
5,TGGTGCACGTGAGAAG,0.29
6,GTGTACACGTGATTGC,0.22
7,GTGGACACGTGAGCGG,0.3
8,TGGATCACGTGTTCTG,0.03
9,TGAGGCACGTGGCTGG,-0.13
10,TGAATCACGTGTTAGT,0.21
11,GCGTGCACGTGTATGA,0.01
12,GCGCGCACGTGGGAGG,-0.14
13,AGCGGCACGTGTACGG,-0.06
14,TTTTGCACGTGGTCAT,-0.04
15,AGGGGCACGTGATACT,0
16,TGTGTCACGTGACGGT,0.17
17,GGGATCACGTGCTCGT,0.22
18,CTCGACACGTGTGGGG,-0.04
19,TAATGCACGTGAGATG,0.09
20,AATGACACGTGGTTGA,0.04
21,ACTGGCACGTGGATGA,0.08
22,AATGTCACGTGGGATA,-0.04
23,GGTAGCACGTGGCCGT,-0.3
24,GCGGTCACGTGGGGCA,-0.12
25,TTGCGCACGTGGGGGC,-0.29
26,ATGGGCACGTGTCGCT,-0.07

row,Sequence,relative binding free energy [kcal/mol]
1,TTTAACACGTGGACAT,0.12
2,ACGTTCACGTGATGTT,0.3
3,ATGATCACGTGAGGGA,0.25
4,CTGTACACGTGAGGAG,0.29
5,AGGTCCACGTGTCGTT,0.14
6,TAGCGCACGTGGCGGG,-0.43
7,TTTTTCACGTGGCCGG,0.21
8,TTATTCACGTGCGGCA,0.26
9,ATGTTCACGTGTATTC,0.07
10,GTCTGCACGTGTATAG,-0.02
11,GTTTACACGTGAATGA,0.35
12,ATGATCACGTGGTAGG,0.14
13,GGTGACACGTGACTGT,0.17
14,AGGTCCACGTGTTGTC,0.09
15,ATGGCCACGTGTTATG,-0.1
16,TGTTGCACGTGCTGGC,0.07
17,TGCTGCACGTGTGGTC,-0.03
18,GATTGCACGTGTTAGT,0.12
19,CATTACACGTGGTTGT,0.12
20,CCGTGCACGTGATGTT,0.21
21,AAAGTCACGTGTTGAG,0.05
22,GCGTTCACGTGAGTGG,0.39
23,TTAAACACGTGTGTAG,-0.02
24,CATGACACGTGTGAGG,0.15
25,TGGTCCACGTGTGAGG,-0.05
26,AGTTGCACGTGTTGAC,0.01

row,Sequence,relative binding free energy [kcal/mol]
1,TTTGCCACGTGATGGG,0.03
2,TAGGGCACGTGCTAGT,-0.29
3,GGAATCACGTGTGGAT,0.06
4,TAAGTCACGTGCTGTT,0.06
5,TTGAGCACGTGGGGAC,-0.32
6,CGTGTCACGTGAAGAT,0.17
7,ACGGACACGTGTTTGG,-0.05
8,TGCTACACGTGTTTGT,-0.04
9,GTGGACACGTGAAGTG,0.28
10,TAGTGCACGTGTAACT,0.08
11,GTTTGCACGTGTTATT,0.13
12,GCGGTCACGTGGTTCG,0.19
13,GAGGGCACGTGACTTG,0.09
14,ATCAGCACGTGTGTGG,0.07
15,CATGTCACGTGAGTGT,0.27
16,TCTGGCACGTGGTTGC,0
17,CTTTTCACGTGTGTCA,0.24
18,GATAGCACGTGGTTGT,-0.09
19,TGATTCACGTGTATGC,0.33
20,AGTCGCACGTGAAAGT,0.27
21,ATGTTCACGTGTAGGC,0.37
22,AGGTTCACGTGTCGGA,0.17
23,GTGGTCACGTGATAAA,0.18
24,GATGACACGTGGTTGA,0.1
25,TTGCGCACGTGTTATG,-0.13
26,AGATCCACGTGTTGTT,-0.01

row,Sequence,relative binding free energy [kcal/mol]
1,GCTGGCACGTGGGGAT,-0.09
2,GGTTTCACGTGGATTA,0.36
3,TTACGCACGTGTATTG,-0.09
4,ATGCGCACGTGGTATA,-0.2
5,TTTGCCACGTGACGTG,0.04
6,AGAGTCACGTGTGGGG,0.08
7,AGGAGCACGTGCGAGT,-0.07
8,CGAGTCACGTGTTAGG,0.09
9,CGGTGCACGTGCATGT,-0.09
10,GTGAACACGTGGTGTG,-0.23
11,AGGGTCACGTGGGATT,0.13
12,TTGGGCACGTGCGGCG,-0.21
13,GTTTCCACGTGCGTTT,0.12
14,TTTCGCACGTGTGTAG,0.07
15,AAAGACACGTGAGGGA,0.36
16,GTAAGCACGTGGGTAA,-0.25
17,TTTCTCACGTGTGAGT,0.21
18,TTTAACACGTGGTCTT,-0.16
19,AAAATCACGTGTTTGA,0.11
20,TGACGCACGTGCGTGG,-0.25
21,GAGTACACGTGAGGGC,0.41
22,TGCTGCACGTGGCGGA,-0.06
23,TTAAGCACGTGGGAAA,-0.04
24,GAATTCACGTGGGGCA,0.28
25,TATAACACGTGCTGTT,-0.11
26,CGGGTCACGTGGCGGA,-0.06

row,Sequence,relative binding free energy [kcal/mol]
1,TTTATCACGTGATAAG,0.1
2,AGGTTCACGTGTTAAC,0.32
3,CAGCTCACGTGGAGGG,0.07
4,TTGGACACGTGCTTTA,0.11
5,CGAATCACGTGGGGCG,0.23
6,ATGTTCACGTGCATGT,0.27
7,CGGTACACGTGCTGGG,0.01
8,GGGGGCACGTGGGTGA,-0.17
9,ATACGCACGTGGGGCT,-0.13
10,GAGGTCACGTGGTTTA,0.03
11,AGTTACACGTGGTATA,0.13
12,TTGGGCACGTGTTCTA,0.01
13,AGGAACACGTGGTGGG,0.02
14,CGGGGCACGTGTTATT,-0.09
15,TGTGACACGTGGTAAA,-0.03
16,AGTGACACGTGTGTGT,-0.05
17,CGGGACACGTGCAGGG,-0.07
18,GCAAGCACGTGGGTGG,-0.21
19,TATGACACGTGAGTAG,0.24
20,AGAGGCACGTGGCAGA,-0.11
21,CGGCGCACGTGATGTG,0.02
22,CGTTACACGTGGTTTG,-0.02
23,TACGGCACGTGCGGGA,-0.12
24,GGTTCCACGTGTAAGG,0.11
25,GATGGCACGTGATAAT,0.16
26,TGTTCCACGTGTGTCG,0.04

row,Sequence,relative binding free energy [kcal/mol]
1,GGTAACACGTGTCGTT,-0.02
2,AGGTGCACGTGTAGAC,0.04
3,TGATGCACGTGTGTTC,0.11
4,GAGTACACGTGTTCGG,0.27
5,AGAGTCACGTGCGTTA,0.1
6,TTAAACACGTGGTATT,-0.02
7,ATCTTCACGTGGGTAT,0.14
8,AGATGCACGTGAGGAA,0.12
9,TATTGCACGTGGTGGC,-0.08
10,TTTGACACGTGGAATT,0.1
11,GTATTCACGTGTGGTA,0.28
12,CAGGGCACGTGCGGGT,-0.09
13,GTTGGCACGTGGGTCT,-0.26
14,TGTAGCACGTGTTGGG,0.05
15,TATCACACGTGATTGG,0.29
16,GTGGGCACGTGTTTCT,-0.09
17,TTTGGCACGTGGCGGA,-0.18
18,TAGTGCACGTGGTCTG,-0.16
19,GTGTGCACGTGCGCGG,-0.24
20,AAGGACACGTGGTGGT,-0.04
21,GTATGCACGTGTTGCT,0.03
22,AGCATCACGTGAAGGT,0.36
23,TCTGACACGTGGTTTT,-0.03
24,AATGGCACGTGTTTAA,-0.2
25,ACTGTCACGTGGGTGG,-0.03
26,GTATTCACGTGATTGC,0.17

row,Sequence,relative binding free energy [kcal/mol]
1,GCGTGCACGTGACGTG,0.17
2,TGTAACACGTGATGTA,0.11
3,GGTATCACGTGTTAGG,0.14
4,ATCATCACGTGTTTTT,0.04
5,GTGTGCACGTGAGGAT,0.34
6,CAGTACACGTGGGGTT,-0.02
7,TGTTTCACGTGTTAGT,0.18
8,CAGTTCACGTGTTGAG,0.28
9,CAGAACACGTGGGGTG,-0.2
10,TACTGCACGTGAGTGT,0.09
11,GCGGCCACGTGGTCGG,-0.03
12,GTTGACACGTGTGGTC,-0.01
13,AGGGACACGTGGTGTT,-0.08
14,TCCGGCACGTGGTTTG,-0.06
15,CAAGTCACGTGGGGAT,-0.1
16,CCTTTCACGTGTTTTG,0.16
17,GAAGACACGTGTGATG,0.25
18,AGCGGCACGTGGACGG,-0.05
19,TAGTGCACGTGTTCTT,-0.04
20,TCGGTCACGTGTCGGT,0.24
21,GGAATCACGTGAAGGT,0.42
22,GGGCGCACGTGTCGTA,-0.1
23,ACGAACACGTGAGGGT,0.25
24,ATCATCACGTGGGGGA,0
25,CTAGCCACGTGTTGGT,-0.09
26,TTTTTCACGTGAAGTC,0.31

row,Sequence,relative binding free energy [kcal/mol]
1,AGAGTCACGTGTTATC,0.24
2,CTGTGCACGTGAGAGA,0.42
3,TAGTGCACGTGGTTCA,-0.13
4,GTGTACACGTGGGTCC,-0.03
5,GCAGACACGTGGGGTT,-0.1
6,AGGTACACGTGAGAAG,0.25
7,TTGTGCACGTGTGATT,0.03
8,TATCTCACGTGTGTTT,0.27
9,ATAAGCACGTGTGTTA,-0.06
10,TAGGTCACGTGCGCAT,0
11,TGGCTCACGTGTGCTT,0.13
12,ATTGGCACGTGTGCAA,-0.13
13,GGATTCACGTGATGTA,0.35
14,AGAATCACGTGTGGGA,0.35
15,GCGGGCACGTGTATGG,-0.07
16,GTCTTCACGTGGCTTG,0.32
17,GTAATCACGTGAATTT,0.4
18,GATAGCACGTGCGGGG,-0.07
19,TATGTCACGTGTCTAT,-0.08
20,AGTAGCACGTGGGCTA,-0.3
21,TTAGTCACGTGGCGCT,0.02
22,ATGTTCACGTGTTATT,0.21
